Measurements from the supplement of paper PMC12067230.
Single values of this set are uncertain.

Assay: amyloid nucleation score relative to library mode (yeast Sup35 reporter selection) (log enrichment difference); higher = more amyloid nucleation; sequences are the first 22 residues of the Bri2 peptide extended by up to 12 random residues
Conditions: random library (experiment): 1;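 active = nucleation score significantly above 0 at FDR 0.05; inactive = not significantly above 0 or absent from output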
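Further: [psi-pin-] Saccharomyces cerevisiae expressing SupN fusions, induced by 100 µM Cu2SO4, selected 7 d at 30 °C without adenine and uracil, scored by deep sequencing of output versus input.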

Row | Sequence | amyloid nucleation score
1 | EASNCFAIRHFENKFAVETLICQRIRRNLRVSRN | 2.38
2 | EASNCFAIRHFENKFAVETLICQRMMSRVVALRD | inactive
3 | EASNCFAIRHFENKFAVETLICQRMRYCGPEVTR | inactive
4 | EASNCFAIRHFENKFAVETLICQRPCRRLARYPG | inactive
5 | EASNCFAIRHFENKFAVETLICQRPGHYRQGRIG | -0.203
6 | EASNCFAIRHFENKFAVETLICQRPSR | -0.551
7 | EASNCFAIRHFENKFAVETLICQRRVSSWGAQRV | inactive
8 | EASNCFAIRHFENKFAVETLICQRW | 3.25
9 | EASNCFAIRHFENKFAVETLICQS | inactive
10 | EASNCFAIRHFENKFAVETLICQSAYTY | inactive
11 | EASNCFAIRHFENKFAVETLICQSCYRRYEGEQV | 2.31
12 | EASNCFAIRHFENKFAVETLICQSEALRRDRRFG | 0.398
13 | EASNCFAIRHFENKFAVETLICQSGDPEAESAVR | inactive
14 | EASNCFAIRHFENKFAVETLICQSHVRRQVLGDW | 3.32
15 | EASNCFAIRHFENKFAVETLICQSILLTYMIVIL | inactive
16 | EASNCFAIRHFENKFAVETLICQSLTPVRGGPLW | -0.154
17 | EASNCFAIRHFENKFAVETLICQSLYLLLWNPQT | 3.77
18 | EASNCFAIRHFENKFAVETLICQSRGPGIHGDLL | inactive
19 | EASNCFAIRHFENKFAVETLICQSRHRKTGLNVT | inactive
20 | EASNCFAIRHFENKFAVETLICQSRVLYRCCYVG | inactive
21 | EASNCFAIRHFENKFAVETLICQSSTYGV | -0.348
22 | EASNCFAIRHFENKFAVETLICQT | inactive
23 | EASNCFAIRHFENKFAVETLICQTARKPEGLHRR | inactive
24 | EASNCFAIRHFENKFAVETLICQTCSGTVFWGE | 8.47
25 | EASNCFAIRHFENKFAVETLICQTESERTMYGRS | -0.0194
26 | EASNCFAIRHFENKFAVETLICQTFQ | 3.76

Row | Sequence | amyloid nucleation score
27 | EASNCFAIRHFENKFAVETLICQTGFTSGLVFSS | inactive
28 | EASNCFAIRHFENKFAVETLICQTGKCRLTVAAG | inactive
29 | EASNCFAIRHFENKFAVETLICQTH | 0.582
30 | EASNCFAIRHFENKFAVETLICQTMCAVPGDHDG | inactive
31 | EASNCFAIRHFENKFAVETLICQTTSSLWCLCGV | 0.0817
32 | EASNCFAIRHFENKFAVETLICQTVDYYKWYCRL | inactive
33 | EASNCFAIRHFENKFAVETLICQTWDNMGWRLVR | -0.137
34 | EASNCFAIRHFENKFAVETLICQV | inactive
35 | EASNCFAIRHFENKFAVETLICQVAETRAGQTAE | inactive
36 | EASNCFAIRHFENKFAVETLICQVAGHVLKAMKR | 1.55
37 | EASNCFAIRHFENKFAVETLICQVAQSRV | inactive
38 | EASNCFAIRHFENKFAVETLICQVGVLVGLYR | 5.32
39 | EASNCFAIRHFENKFAVETLICQVPGEVRVRDEG | inactive
40 | EASNCFAIRHFENKFAVETLICQVRRPGVKSWVR | inactive
41 | EASNCFAIRHFENKFAVETLICQVTPPRRFGM | 4.62
42 | EASNCFAIRHFENKFAVETLICQVTVCPWLCASG | 9.08
43 | EASNCFAIRHFENKFAVETLICQWMSEYCVGRFA | 1.06
44 | EASNCFAIRHFENKFAVETLICQWS | inactive
45 | EASNCFAIRHFENKFAVETLICQWVAWAWRFRPG | inactive
46 | EASNCFAIRHFENKFAVETLICQY | inactive
47 | EASNCFAIRHFENKFAVETLICQYCCQSNQQKYM | 4.95
48 | EASNCFAIRHFENKFAVETLICQYGC | 5.06
49 | EASNCFAIRHFENKFAVETLICQYLVEE | inactive
50 | EASNCFAIRHFENKFAVETLICQYVRSLWLRLVG | inactive
51 | EASNCFAIRHFENKFAVETLICRAARRRTGAADR | inactive

Same assay, conditions: random library (experiment): 2

Row | Sequence | amyloid nucleation score
52 | EASNCFAIRHFENKFAVETLICQRGIFYAMGCRL | 1.53
53 | EASNCFAIRHFENKFAVETLICQRIDSCRLDISE | 1.39
54 | EASNCFAIRHFENKFAVETLICQRMFNPLFRWGA | inactive
55 | EASNCFAIRHFENKFAVETLICQRTLYTELEVR | inactive
56 | EASNCFAIRHFENKFAVETLICQSCMHMMAWMNA | inactive
57 | EASNCFAIRHFENKFAVETLICQSDYLELLDSEV | inactive
58 | EASNCFAIRHFENKFAVETLICQSFSCYGIYVSS | 2.05
59 | EASNCFAIRHFENKFAVETLICQSRYNYCWTIRR | inactive
60 | EASNCFAIRHFENKFAVETLICQSWAIQPLVRKE | inactive
61 | EASNCFAIRHFENKFAVETLICQSWFYGNVWRAV | -0.0953
62 | EASNCFAIRHFENKFAVETLICQTDMSCKIYVWC | inactive
63 | EASNCFAIRHFENKFAVETLICQTHNIYVITFLE | 4.38
64 | EASNCFAIRHFENKFAVETLICQTVYDSLNCACR | inactive
65 | EASNCFAIRHFENKFAVETLICQTYNGS | inactive
66 | EASNCFAIRHFENKFAVETLICQVDPFAVVHYNR | inactive
67 | EASNCFAIRHFENKFAVETLICQVRSAV | -0.531
68 | EASNCFAIRHFENKFAVETLICQVVCTMNVCVDG | 7.89
69 | EASNCFAIRHFENKFAVETLICQVYCLVTFAFSD | inactive
70 | EASNCFAIRHFENKFAVETLICQWLLLFSICRRK | 0.553
71 | EASNCFAIRHFENKFAVETLICQYCLMDVVGL | inactive
72 | EASNCFAIRHFENKFAVETLICQYDICERCWRIS | inactive
73 | EASNCFAIRHFENKFAVETLICQYGQCLW | 8.41
74 | EASNCFAIRHFENKFAVETLICQYMPHRMFGCVP | 3.55
75 | EASNCFAIRHFENKFAVETLICQYRVQCKFFKC | 0.762

Same assay, conditions: random library (experiment): 3

Row | Sequence | amyloid nucleation score
76 | EASNCFAIRHFENKFAVETLICQRGCHLVFRMAC | 2.19
77 | EASNCFAIRHFENKFAVETLICQRIVYMAGECMR | 4.6
78 | EASNCFAIRHFENKFAVETLICQRKLSGNFMLVV | inactive
79 | EASNCFAIRHFENKFAVETLICQRSWKVRLAHSC | 0.104
80 | EASNCFAIRHFENKFAVETLICQRSWYLMRFMKA | inactive
81 | EASNCFAIRHFENKFAVETLICQRTWDEIDVVGM | 0.684
82 | EASNCFAIRHFENKFAVETLICQRVNARTLRVHR | inactive
83 | EASNCFAIRHFENKFAVETLICQRVVINDLVTSG | inactive
84 | EASNCFAIRHFENKFAVETLICQRWWGGSPRGPR | 4.08
85 | EASNCFAIRHFENKFAVETLICQRYS | inactive
86 | EASNCFAIRHFENKFAVETLICQSALHKARIGGH | inactive
87 | EASNCFAIRHFENKFAVETLICQSCIDWRWIRTA | inactive
88 | EASNCFAIRHFENKFAVETLICQSDHWGSMTK | 1.15
89 | EASNCFAIRHFENKFAVETLICQSDSDLVMAHWG | inactive
90 | EASNCFAIRHFENKFAVETLICQSDVER | inactive
91 | EASNCFAIRHFENKFAVETLICQSEGVMWYGPVS | inactive
92 | EASNCFAIRHFENKFAVETLICQSG | inactive
93 | EASNCFAIRHFENKFAVETLICQSGTLFRMYSAC | inactive
94 | EASNCFAIRHFENKFAVETLICQSRFFGMRGPCA | 2.76
95 | EASNCFAIRHFENKFAVETLICQSSVAPAVRRGV | 0.426
96 | EASNCFAIRHFENKFAVETLICQSVSCGRSSGEV | inactive
97 | EASNCFAIRHFENKFAVETLICQTCWTVWHLFLS | inactive
98 | EASNCFAIRHFENKFAVETLICQTDHTFVAMLA | inactive

Row | Sequence | amyloid nucleation score
99 | EASNCFAIRHFENKFAVETLICQTRQGRWDSGRM | 3.9
100 | EASNCFAIRHFENKFAVETLICQTRRAYCVRTSC | inactive
101 | EASNCFAIRHFENKFAVETLICQTTCYRLLISMP | 0.0556
102 | EASNCFAIRHFENKFAVETLICQTWHRPV | 3.23
103 | EASNCFAIRHFENKFAVETLICQVCFVYTLCPLP | 1.33
104 | EASNCFAIRHFENKFAVETLICQVEGMDTGSALR | inactive
105 | EASNCFAIRHFENKFAVETLICQVLCVRKTGNVG | 0.0846
106 | EASNCFAIRHFENKFAVETLICQVMYPVESCVVI | inactive
107 | EASNCFAIRHFENKFAVETLICQVQPLPRVLRLG | inactive
108 | EASNCFAIRHFENKFAVETLICQVSGSTPFLGRA | inactive
109 | EASNCFAIRHFENKFAVETLICQVVMKEKADPSE | 7.09
110 | EASNCFAIRHFENKFAVETLICQVWHKCLGFSNW | inactive
111 | EASNCFAIRHFENKFAVETLICQWMRICRECTDC | inactive
112 | EASNCFAIRHFENKFAVETLICQWQGAKDADRRP | inactive
113 | EASNCFAIRHFENKFAVETLICQWVLFNTEGPMA | -0.26
114 | EASNCFAIRHFENKFAVETLICQYECAYGGRGWA | 0.749
115 | EASNCFAIRHFENKFAVETLICQYNYGLSQFVFR | 7.06
116 | EASNCFAIRHFENKFAVETLICQYRL | inactive
117 | EASNCFAIRHFENKFAVETLICQYYARWQRVVTL | inactive
118 | EASNCFAIRHFENKFAVETLICRAAGLFKATCCV | 0.44
119 | EASNCFAIRHFENKFAVETLICRAAHL | inactive
120 | EASNCFAIRHFENKFAVETLICRAAKLVEYGW | -0.314
